# Measurements from the supplement of paper PMC9588766.
# Whole data set: some 1,900 compounds, median “cell viability of compound + 1 nM pemigatinib relative to pemigatinib-only (DMSO) wells” near 0.95, cut for the lowest 2% near 0.22. The list shows a part of the results.
# System: PDC-DUC18828
# Assay: cell viability of compound + 1 nM pemigatinib relative to pemigatinib-only (DMSO) wells (fraction); PDC-DUC18828 is a patient-derived cholangiocarcinoma cell line; higher = less growth inhibition
# Conditions: first compound 1 µM; pemigatinib concentration 1 nM; 72 h
# Method: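 Selleck Bioactive library screen in the patient-derived FGFR2 fusion-positive ICC cell line PDC-DUC18828 (500 cells/well). Each compound was tested at 1 uM with 1 nM pemigatinib, in triplicate, for 72 h. Viability was read by CellTiter-Glo and normalised to plate DMSO controls. Value is the paper's averaged normalised viability.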
row,SMILES,cell viability
1,O=C(Nc1cccc(Cl)c1)c1ccccn1 + CCN1C(=O)N(c2c(F)c(OC)cc(OC)c2F)Cc2cnc3[nH]c(CN4CCOCC4)cc3c21 [pemigatinib],0.902
2,C[C@@H]1C[C@H]2[C@@H]3C[C@H](F)C4=CC(=O)C=C[C@]4(C)[C@@]3(F)[C@@H](O)C[C@]2(C)[C@@]1(O)C(=O)CO [Flumethasone] + CCN1C(=O)N(c2c(F)c(OC)cc(OC)c2F)Cc2cnc3[nH]c(CN4CCOCC4)cc3c21 [pemigatinib],0.883
3,O=C(NC[C@H]1CN(c2ccc(N3CCOCC3=O)cc2)C(=O)O1)c1ccc(Cl)s1 [Rivaroxaban] + CCN1C(=O)N(c2c(F)c(OC)cc(OC)c2F)Cc2cnc3[nH]c(CN4CCOCC4)cc3c21 [pemigatinib],0.867
4,Cc1nnc(C(=O)NC(C)(C)c2nc(C(=O)NCc3ccc(F)cc3)c(O)c(=O)n2C)o1 [Raltegravir (MK-0518)] + CCN1C(=O)N(c2c(F)c(OC)cc(OC)c2F)Cc2cnc3[nH]c(CN4CCOCC4)cc3c21 [pemigatinib],0.97
5,c1ccc(NCc2ccc(CNc3ccccn3)cc2)nc1 + CCN1C(=O)N(c2c(F)c(OC)cc(OC)c2F)Cc2cnc3[nH]c(CN4CCOCC4)cc3c21 [pemigatinib],0.885
6,CN1CCN(Cc2ccc(Nc3ncc(Cl)c(Nc4ccccc4S(=O)(=O)N(C)C)n3)cc2)CC1 + CCN1C(=O)N(c2c(F)c(OC)cc(OC)c2F)Cc2cnc3[nH]c(CN4CCOCC4)cc3c21 [pemigatinib],0.839
7,COC(=O)c1ccc2c(c1)nc(NC(=O)c1ccccc1)n2CCCc1ccccc1 + CCN1C(=O)N(c2c(F)c(OC)cc(OC)c2F)Cc2cnc3[nH]c(CN4CCOCC4)cc3c21 [pemigatinib],0.959
8,COc1c(C)c(C(=O)c2ccc(N)c(C(=O)O)c2)n2ccccc12 + CCN1C(=O)N(c2c(F)c(OC)cc(OC)c2F)Cc2cnc3[nH]c(CN4CCOCC4)cc3c21 [pemigatinib],0.968
9,COc1nccc(-c2c(-c3ccc(F)cc3)ncn2C2CCC(O)CC2)n1 (stereo unspecified) + CCN1C(=O)N(c2c(F)c(OC)cc(OC)c2F)Cc2cnc3[nH]c(CN4CCOCC4)cc3c21 [pemigatinib],0.917
10,CN[C@@H](C)C(=O)N[C@H](C(=O)N1CCC[C@H]1c1nc(C(=O)c2ccc(F)cc2)cs1)C1CCCCC1 + CCN1C(=O)N(c2c(F)c(OC)cc(OC)c2F)Cc2cnc3[nH]c(CN4CCOCC4)cc3c21 [pemigatinib],0.943
11,Cc1c(C(=O)Nc2ccc(Oc3ccnc4[nH]cc(-c5ccccc5)c34)c(F)c2)c(=O)n(-c2ccc(F)cc2)n1C + CCN1C(=O)N(c2c(F)c(OC)cc(OC)c2F)Cc2cnc3[nH]c(CN4CCOCC4)cc3c21 [pemigatinib],0.842
